Measured values as given in US10864269B2, “Therapeutic combinations comprising anti-CD73 antibodies and uses thereof” (MedImmune Limited, priority 2014, dated 2020).

Tested on: recombinant soluble CD73 ECD as well as native CD73 displayed on cells
Assay: Inhibition of CD73 activity by lead antibody
Type: biochemical

B1: CD730010: IgG1 with VL SEQ ID NO:3 and VH SEQ ID NO: 4; lead antibody (antibody, V domains shown)
VH: [letters of about 100 residues left out]LGYSTIDYWGRGTLVTVSS
VL: LPVLTQPPSVSGTPGQRVTISCSGSLSNIGRNPVNWYKQVPGTAPKLLIYLNNQRPSGVPDRFSGSKSGTSASLAISGLQSEDEADYYCATWDDSLNGWLFGGGTKLTVL
  activity of recombinant soluble CD73 ECD and native CD73 displayed on cells: inhibit
